PubChem BioAssay (EPA / NIEHS)
This list was built around the results that the source calls inconclusive (neither active nor inactive); the mix of calls is not that of the screen. Where the call is inconclusive, the potency comes from a doubtful curve fit. Activity calls are given as the source filed them. How the source made its calls: active means hit-call score of the fitted dose curve at least 0.9, where 1 is the maximum; inconclusive means response in the unintended direction; inactive means score below 0.9.

These compounds were tested on Glyceraldehyde-3-phosphate dehydrogenase (Homo sapiens) (UniProt P04406) (assay: CLD_GAPDH_24hr: CellzDirect (CLD) Gene Expression Assay for Baseline Control (Glyceraldehyde 3-phosphate dehydrogenase) at 24 hours (AID 2283692)).
Chain of UniProt P04406 (P04406 whole entry, looked up): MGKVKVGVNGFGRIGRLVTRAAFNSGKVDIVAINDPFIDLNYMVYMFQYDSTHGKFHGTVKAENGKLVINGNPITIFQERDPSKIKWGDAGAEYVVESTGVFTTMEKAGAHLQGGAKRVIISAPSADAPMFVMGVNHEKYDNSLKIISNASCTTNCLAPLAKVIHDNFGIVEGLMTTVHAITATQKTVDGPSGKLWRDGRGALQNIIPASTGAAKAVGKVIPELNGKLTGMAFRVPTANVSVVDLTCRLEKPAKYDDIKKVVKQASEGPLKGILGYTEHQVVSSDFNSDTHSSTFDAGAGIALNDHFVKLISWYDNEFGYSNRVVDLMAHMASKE
Description: CLD_24hr is a cell-based, multiplexed-readout assay that uses hepatocyte, a human liver primary cell, with measurements taken at 24 hours after chemical dosing in a 96-well plate.CLD_GAPDH_24hr is one of 16 assay component(s) measured or calculated from the CLD_24hr assay. It is designed to make measurements of mRNA induction, a form of inducible reporter, as detected with chemiluminescence signals by Quantitative Nuclease Protection Assay (qNPA) technology.Data from the assay component CLD_GAPDH_24hr was analyzed at the endpoint, CLD_GAPDH_24hr, in the positive analysis fitting direction relative to DMSO as the negative control and baseline of activity. Using a type of inducible reporter, gain-of-signal activity can be used to understand changes in the reporter gene as they relate to the gene GAPDH. Furthermore, this assay endpoint can be referred to as a secondary readout, because this assay has produced multiple assay endpoints where this one serves a background control function. To generalize the intended target to other relatable targets, this assay endpoint is annotated to the background measurement intended target family, where subfamily is baseline control.
Human hepatocyte cultures were treated daily for two consecutive days with fresh dosing solutions containing appropriate concentrations of the 320 ToxCast chemicals (chemical identities were blinded to CellzDirect and other ToxCast collaborators), vehicle control (0.2% DMSO), and positive control inducers as summarized in Table 1. Due to the large number of treatment groups and chemicals examined, the ToxCast chemicals were divided into two groups (spanning two independent cultures of hepatocytes from separate donor preparations (Hu778: ToxCast plates 1 and 2; Hu776: ToxCast plates 3 and 4). Each preparation of human hepatocyte cultures was treated with respective vehicle control, medium only control, set of six positive controls/reference chemicals for the five hepatic receptor pathways, and a subset of eight of the ToxCast chemicals (indoxacarb, pyrithiobac-sodium, norflurazon, cyhalofop-butyl, methomyl, thiram, acetochlor, and propiconazole). These replicate data, coupled with internal replicates designed within the blinded ToxCast chemical library, provided additional data to evaluate interindividual differences between hepatocyte preparations and their potential impact on chemical profiles.Cell morphology and integrity were evaluated using phase-contrast microscopy as an indicator of hepatocyte cell health (Tyson & Green, 1987). Cultures for each treatment group (i.e., media, vehicle [0.2% DMSO], positive control inducers [multiple concentrations], and the ToxCast chemicals [multiple concentrations]) were observed and cell morphology was assessed relative to vehicle control cultures at each harvest time point (0, 6, 24, or 48 h). […] Images were evaluated at the conclusion of the study to assess changes in cell integrity and account for the effects of chemical exposure on uncharacteristic changes in concentration-dependent gene expression profiles. The results from these determinations of apparent cytotoxicity were annotated (yes/no) alongside the corresponding qNPA data for reference.At the conclusion of each treatment period, hepatocyte cultures (96-well) were washed with 1 volume of HBSS, lysed by addition of 25 ul ArrayPlate lysis buffer (HTG, Tucson, AZ), and 70 ul/well of Denaturation Oil, denatured by incubation at 95C for 10 min, and frozen at approximately -70C until analysis by nuclease protection assay (qNPA) (Roberts et al., 2007). For qNPA analysis, cell lysates were thawed at 50C for approximately 30 min, qNPA probes were added, and samples were incubated at 95C for 10 min to begin the detection process by denaturing the target RNA, dissociating the duplexes and secondary structure hybridization. At the conclusion of the hybridization period, S1 nuclease reagent was added to each sample to digest all nonprotected nucleotides at 50C for 60-90 min. […]

AC50, inconclusive:
CCCCC(CC)CN1C(=O)C2C3C=CC(C3)C2C1=O (stereo not given) 20 µM
CCCN(CCC)C(=O)SCC 20 µM
CCN(CC)C(=O)c1cccc(C)c1 20 µM
COC(=O)CSc1cc(N=c2sc(=O)n3n2CCCC3)c(F)cc1Cl 20 µM
CCOC(=O)C(C)Oc1ccc(Oc2nc3ccc(Cl)cc3o2)cc1 (stereo not given) 20 µM
COC(=O)c1ccc(CNS(C)(=O)=O)cc1S(=O)(=O)NC(=O)Nc1nc(OC)cc(OC)n1 20 µM
CCN(Cc1c(F)cccc1Cl)c1c([N+](=O)[O-])cc(C(F)(F)F)cc1[N+](=O)[O-] 3.89 µM
COC(=O)c1ccc(I)cc1S(=O)(=O)NC(=O)Nc1nc(C)nc(OC)n1 36.2 µM
C=CCOC(Cn1ccnc1)c1ccc(Cl)cc1Cl (stereo not given) 2.03 µM

outcome, inactive:
CCNc1nc(N)nc(Cl)n1
COC(=O)c1c(Cl)nn(C)c1S(=O)(=O)NC(=O)Nc1nc(OC)cc(OC)n1
CCC(C)OC(=O)N1CCCCC1CCO (stereo not given)
CCSC(=O)N(CC(C)C)CC(C)C
OB(O)O
C#CCOC(=O)[C@@H](C)Oc1ccc(Oc2ncc(Cl)cc2F)cc1
